Data reported in PubChem BioAssay AID651820 (National Center for Advancing Translational Sciences (NCATS), 2012).
Several values for one entry are separate records, joined by “and”; a condition that tells them apart may be missing. Identical values can stand only once. Among all 340,000 compounds or so, about 12,000 (3.5%) were called active. Inconclusive means that the source gave no clear call. Such entries were picked first, then a sample of the others. Calls follow the shape of the dose curve; as a rule, active = well fitted inhibition curve with a large enough effect; inconclusive = small, poorly fitted or top-dose-only effect, or another doubt; inactive = no such curve, though single readings can be large or run the other way. Potencies of inconclusive entries are doubtful fits and often do not repeat.
% is scaled to controls: 0 for no effect and ±100 for the full control effect; potency is read from the fitted curve at half-maximal effect; tags tell the direction and shape of the fitted curve.

Test: qHTS Assay for Inhibitors of Hepatitis C Virus (HCV)
Details: Huh7.5.1 HCVcc-Cre (HCVcc is cell-culture hepatitis C virus) infection, luciferase reporter, 44 h; activity change, negative = inhibition: at 41.8 µM (top of the series) unless noted
Summary of the method: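 Compounds are dispensed onto cells plated 4 h earlier at 1,000 per well, with HCVcc-Cre virus (about 0.5 moi) added next. Following 44 h of culture, luminescent signal is measured for 15 sec after 15 min with substrate at room temperature.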
For COc1ccc(CCC(=O)Nc2cccc(S(=O)(=O)N3CCOCC3)c2)cc1OC, the Potency was inconclusive: 10 µM [inhibitor, partial curve]. With COC(C(=O)N/N=C(\C)c1ccc(C(C)(C)C)cc1)c1ccccc1 (stereo not given) the Potency was inconclusive: 31.6 µM [inhibitor, single point]. With Cc1nc2ncnn2c(N2CCN(c3cccc(C(F)(F)F)c3)CC2)c1C the Potency was active: 0.891 µM. For COc1ccc(NC(=S)Nc2cccc(C)n2)cc1, the Potency was inconclusive: 14.1 µM [inhibitor, single point]. For CCOC(=O)C1=C(O)/C(=C/c2cc(OC)c(O)c(OC)c2)SC1=Nc1ccc(OC)cc1, the Potency was inconclusive: 1.12 µM [inhibitor, partial curve, poor fit]. In the case of Cn1ccnc1SCC(=O)Nc1ccc2nc(SCC(=O)NC3CC3)sc2c1, the “activity change, negative = inhibition” value was inactive: -1.05%. With CCOC(=O)Cc1c(C)nc2c(-c3ccc(OC)cc3)c(C)nn2c1C the Potency was inconclusive: 31.6 µM [inhibitor, single point]. For CCOc1ccccc1NC(=O)C1CCCN(C(=O)Nc2ccccc2)C1 (stereo not given), the Potency was inconclusive: 10 µM [inhibitor, partial curve]. With CC(NC(=O)c1cccc(Cn2cc([N+](=O)[O-])cn2)c1)c1ccc(C(C)(C)C)cc1 (stereo not given) the Potency was inconclusive: 11.2 µM [inhibitor, single point]. In the case of CN(C)c1nc(NCc2ccccc2)nc(SCC(=O)Nc2ccccc2Cl)n1, the Potency was inconclusive: 31.6 µM [inhibitor, single point]. With O=C(Nc1cccc(S(=O)(=O)N2CCCC2)c1)c1cccc(S(=O)(=O)N2CCOCC2)c1 the Potency was inconclusive: 11.2 µM [inhibitor, partial curve]. In the case of CC(C)NS(=O)(=O)c1ccc2c(c1)oc(=O)n2C, the Potency was inconclusive: 5.62 µM [inhibitor, single point]. For CC(C)(C)OC(=O)NCCCCCNC(=O)c1[nH]cnc1C(=O)Nc1ccon1, the “activity change, negative = inhibition” value was inactive: -10.5%. In the case of CC(C)(C)C(=O)NCc1ccc(C(=O)CSc2nnc(-c3ccncc3)n2C2CC2)s1, the “activity change, negative = inhibition” value was inactive: -8.74%. In the case of CC(=Nc1ccc(O)cc1)c1sc2ccccc2c1O, the Potency was active: 12.6 µM. With O=C(Oc1c(CN2CCOCC2)cc(Cl)c2cccnc12)c1ccccc1Cl the Potency was inconclusive: 3.55 µM [inhibitor, full curve]. For O=C1NC(Cc2ccc(O)cc2)c2nc3cc(F)ccc3c(=O)n2-c2cc(Cl)ccc21 (stereo not given), the “activity change, negative = inhibition” value was inactive: 0.223%. In the case of Cc1cccn2c(=O)c3cc(C(=O)NCc4ccco4)c(=N)n(C4CCCC4)c3nc12, the Potency was active: 6.31 µM. For CCc1ccc(CN(C)C(=O)c2cc(COc3ccc(-n4cncn4)cc3)on2)cc1, the Potency was inconclusive: 31.6 µM [inhibitor, single point]. In the case of O=C(Nc1ccc(F)cc1)NC1CCN(Cc2c(F)cccc2Cl)CC1, the activity change, negative = inhibition was inconclusive: -53.6% [inhibitor]. In the case of O=c1ccc(Cl)nn1-c1ccccc1, the “activity change, negative = inhibition” value was inactive: -6.46%. With CC(=O)c1cccc(NC(=O)N2CCCC2C(=O)Nc2cccc(C)c2C)c1 (stereo not given) the “activity change, negative = inhibition” value was inactive: -10%. For COCCN(C(=O)Nc1ccc(OC)cc1)c1nc2ccccc2s1, the Potency was inconclusive: 31.6 µM [inhibitor, single point]. For O=C(NCCc1csc(-c2cccc(F)c2)n1)c1ccco1, the Potency was active: 10 µM. For CCN1C(=O)/C(=C/c2ccc(N3CCCC3)cc2)NC1=S, the Potency was inconclusive: 15.8 µM [inhibitor, single point]. With Cc1ccc(C)c(C(=O)OCC(=O)Nc2cccc(S(=O)(=O)N3CCCCC3)c2)c1 the Potency was active: 10 µM. In the case of CCN(CC)S(=O)(=O)c1cc(C(=O)Oc2cccc(-c3cnc4ccccc4n3)c2)ccc1Br, the “activity change, negative = inhibition” value was inactive: 1.64%. In the case of O=c1c2ccccc2nc(CNCc2ccco2)n1-c1ccc(F)cc1, the Potency was inconclusive: 2 µM [inhibitor, partial curve]. For CCC(=O)Nc1sc(C(=O)OC)c(C)c1C(=O)OC, the Potency was inconclusive: 0.501 µM [inhibitor, full curve]. With Cc1ccc(C)c(NC(=O)CN(C)C(=O)c2ccc3ncsc3c2)c1 the “activity change, negative = inhibition” value was inactive: 36.6%. For CC(C)c1ccc(/C=N/NC(=O)c2ccccc2Cl)cc1, the Potency was inconclusive: 25.1 µM [inhibitor, single point]. In the case of O=C(N/N=C/c1cc([N+](=O)[O-])ccc1O)c1cccc(N2CCCC2=O)c1, the Potency was inconclusive: 20 µM [inhibitor, single point]. For N#Cc1ccc(OCC(=O)NCCc2ccc(S(N)(=O)=O)cc2)cc1, the “activity change, negative = inhibition” value was inactive: 11.5%. In the case of O=C(NNC(=O)c1ccc(Cl)cc1Cl)c1cnccn1, the “activity change, negative = inhibition” value was inactive: -10.7%. For CCCCOc1ccc(C(=O)N/N=C/c2ccc(OCCN3CCCCC3)c(OC)c2)cc1, the Potency was inconclusive: 7.94 µM [inhibitor, partial curve]. With OCC1(Cc2ccccc2)CCN(Cc2cc3ccccc3o2)CC1 the “activity change, negative = inhibition” value was inactive: 1.23%. In the case of C=C1C[C@H]2[C@@H]3C=C(C)C4=CC(=O)CC[C@]4(C)[C@H]3CC[C@]2(C)[C@@]1(OC(C)=O)C(C)=O, the Potency was inconclusive: 6.31 µM [inhibitor, partial curve]. With COc1ccc(N(CC(=O)NC2CCCC2)S(=O)(=O)c2ccc(NC(C)=O)cc2)cc1 the Potency was inconclusive: 10 µM [inhibitor, partial curve]. With C[C@@H]1COC(=O)[C@@H](Cc2ccc(F)cc2)C/C=C\C[C@@H](CC(=O)N(CCO)Cc2ccccc2)C(=O)N1 the Potency was inconclusive: 25.1 µM [inhibitor, single point]. With O=C(O)CN1C(=O)/C(=C\c2ccccc2OCc2ccc(Cl)cc2Cl)SC1=S the “activity change, negative = inhibition” value was inactive: 30.1%. With O=P(Oc1ccccc1)(Oc1ccccc1)C(Nc1ccccc1)c1ccccc1 (stereo not given) the “activity change, negative = inhibition” value was inactive: 8.51%. In the case of CC(C)(C)SC(=O)CC1NS(=O)(=O)OC2CCCCC12 (stereo not given), the “activity change, negative = inhibition” value was inactive: 2.24%. For COC(=O)[C@@]1(C)[C@H]2C(=O)N(Cc3ccccc3)C(=O)[C@H]2[C@H]2CN=C(SCc3ccccc3)N21, the Potency was inconclusive: 22.4 µM [inhibitor, single point]. With Cc1c(C)c2c(OCC(=O)NCC(C)C)cc3c(c2oc1=O)CCC(C)(C)O3 the Potency was inconclusive: 11.2 µM [inhibitor, partial curve]. With O=C(NC1CCCCC1)c1cccnc1C(=O)O the “activity change, negative = inhibition” value was inactive: 6.46%. For COc1ccc(OC)c(Nc2nc(-c3sc(NC(=O)C(C)(C)C)nc3C)cs2)c1, the Potency was inconclusive: 10 µM [inhibitor, partial curve]. With COc1cc(/C=C2\SC(=Nc3ccccc3OC)NC2=O)ccc1O the “activity change, negative = inhibition” value was inactive: -24.5%. In the case of COc1ccc(C2c3ccc(O)cc3Oc3ncn4nc(-c5ccncc5)nc4c32)cc1OC (stereo not given), the Potency was inconclusive: 1.26 µM [inhibitor, full curve, poor fit]. With COc1cc([N+](=O)[O-])ccc1NC(=O)CCCOc1cccc(C)c1C the Potency was inconclusive: 35.5 µM [inhibitor, partial curve]. With CCOC(=O)Nc1nc(-c2ccc(F)cc2F)cs1 the Potency was inconclusive: 31.6 µM [inhibitor, single point]. In the case of Cc1ccccc1C(=O)Nc1ccnn1C1CCN(Cc2c(C)n(C)c3ccccc23)CC1, the Potency was inconclusive: 22.4 µM [inhibitor, single point]. With O=C(Nc1ccc(N2CCOCC2)c(Cl)c1)c1ccc([N+](=O)[O-])o1 the Potency was active: 11.2 µM. In the case of CCCn1c(NC(=O)c2ccc([N+](=O)[O-])o2)nc2ccccc21, the Potency was inconclusive: 3.55 µM [inhibitor, partial curve, poor fit]. With COCc1cc(C)nc2sc(C(=O)Nc3nccs3)c(N)c12 the “activity change, negative = inhibition” value was inactive: -23.3%. For NS(=O)(=O)c1ccc(NCc2ccccc2OCc2ccc(F)cc2)cc1, the “activity change, negative = inhibition” value was inactive: -15.7%. In the case of Cc1cc(NC(=O)c2ccccc2F)nc2c1c(=O)oc1ccccc12, the “activity change, negative = inhibition” value was inactive: -28.7%. For Cc1c(NC(=O)CSc2ncnc3ccccc23)c(=O)n(-c2ccccc2)n1C, the “activity change, negative = inhibition” value was inactive: 14.5%. With CCC1(c2ccc(F)cc2)NC(=O)N(CC(=O)Nc2cc(C)on2)C1=O (stereo not given) the “activity change, negative = inhibition” value was inactive: 11.6%. In the case of CC(C)(C)c1ccc(S(=O)(=O)NCC(=O)Nc2ccc(-c3nc4ccccc4s3)cc2)cc1, the Potency was inconclusive: 31.6 µM [inhibitor, single point]. For Cc1ccc(OCC(O)Cn2c3ccccc3c3ccccc32)cc1 (stereo not given), the Potency was inconclusive: 31.6 µM [inhibitor, single point]. With CN1C(=O)C(c2nnc(Nc3cccc4ccccc34)s2)C2CC1(C)Oc1ccccc12 (stereo not given) the Potency was “inactive and inconclusive: 14.1 µM [inhibitor, single point]”. For Cc1cc2ccccn2c1C(=O)c1ccccc1F, the Potency was inconclusive: 11.2 µM [inhibitor, partial curve, poor fit]. With Cn1c(=NC(=O)c2ccccc2[N+](=O)[O-])sc2cc(S(C)(=O)=O)ccc21 the Potency was inconclusive: 10 µM [inhibitor, single point]. In the case of CC(NC(=O)CN1C(=O)NC(C)(c2cccc3ccccc23)C1=O)c1ccccc1 (stereo not given), the Potency was inconclusive: 2 µM [inhibitor, single point]. In the case of COc1cc(NC(=O)c2cc([N+](=O)[O-])ccc2NC(=O)CNC2CCCCC2C)cc(OC)c1 (stereo not given), the Potency was active: 6.31 µM. With O=[N+]([O-])c1ccc(NN=Cc2ccccc2O)nc1 the Potency was inconclusive: 20 µM [inhibitor, single point]. With Cc1cc(C)nc(NC(=NCCc2c[nH]c3ccccc23)NC(=O)Nc2ccc(Cl)c(Cl)c2)n1 the Potency was inconclusive: 10 µM [inhibitor, partial curve]. With O=c1[nH]c(SCc2nc3c(cnn3-c3ccccc3)c(=O)[nH]2)nc2ccccc12 the Potency was inconclusive: 5.62 µM [inhibitor, single point]. For CCN(C(=O)COC(=O)CSc1ccccc1)c1c(N)n(Cc2ccccc2)c(=O)[nH]c1=O, the “activity change, negative = inhibition” value was inactive: 5.81%. For COc1ccc(-c2nnc(SCC(=O)c3cccs3)n2-c2ccc(Cl)cc2)cc1, the Potency was inconclusive: 11.2 µM [inhibitor, single point].
